In publication PMC10726135 one finds binding signal (log2 normalized intensity) data, which are given here for 72 sequences.

Some of the results follow. At the low end of the ranking the order means little. The protein was read in a cell extract, so binding may be indirect.

In this test the target is T1, HNF4alpha8 (COS-7 nuclear extract) (UniProt P41235-5).
T1 sequence: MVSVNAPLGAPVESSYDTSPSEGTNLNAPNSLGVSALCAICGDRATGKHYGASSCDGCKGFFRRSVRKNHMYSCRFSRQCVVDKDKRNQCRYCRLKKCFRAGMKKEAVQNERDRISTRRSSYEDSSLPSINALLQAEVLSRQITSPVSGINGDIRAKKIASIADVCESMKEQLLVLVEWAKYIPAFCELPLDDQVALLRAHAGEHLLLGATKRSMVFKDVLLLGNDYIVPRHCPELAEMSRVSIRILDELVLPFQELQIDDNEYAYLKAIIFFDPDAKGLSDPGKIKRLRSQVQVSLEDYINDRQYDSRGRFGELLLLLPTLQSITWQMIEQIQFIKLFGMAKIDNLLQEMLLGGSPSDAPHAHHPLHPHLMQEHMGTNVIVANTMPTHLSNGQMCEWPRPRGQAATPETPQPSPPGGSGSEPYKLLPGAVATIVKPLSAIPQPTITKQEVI
Kind of test: protein-binding microarray. The note with it: COS-7 nuclear extract on double-stranded Agilent 4x180k PBM; binding buffer, salt, pH and temperature not given; high values mean tight binding; double strand, one strand shown; sequences stand for … in …GCCTAGGGAGATTAGAGTATCGGTCGA
Take GCATGCCTCCCAGAGCATTGTTTATTGTTG: the binding signal (log2 normalized intensity) worked out at 1.11. For the sequence GGCATTGTGTTACGTCTGGTTTCTTATCTT, the binding signal (log2 normalized intensity) amounted to 1.26.

GGGCAAAGGTCAGGATCTCAGCCGCGCGGC: the binding signal (log2 normalized intensity) came out at 4.79. With AGAAAGACATGTTTCTAACTGCCCGCATTC the figure was 0.219; with CAGTTAACGGGGACGCTTTAGAGAAACGCA, -1.2.

In the case of CGGCAGAACTGGTGACCGGACACAAAAGCT, the binding signal (log2 normalized intensity) was -1.24. The same measure for AGGTAACGTAAACAAGTAAGGAAGACAAGA: -1.27; for CAGCTTTGAAGTGCTTCCTGTGTATTTCTT: 1.27. The same measure for TGGGACTGGCAAAGCCATGAAGCAATTCTG: -1.39; for CTTAACTTGGTTTCCCTGGAAACAGATAAA: 0.246; for CTGCCATAAACTTCTCCCCCACATGGAAAC: 4.03. For AGCTTGCTCTCACCAGCTTCTTCTCTTTGA, the binding signal (log2 normalized intensity) is -0.143. With ACACTGCCATTTAAAAGTTTCCCTTGATCA the figure was 0.293; with ACACAGACACACATGAGCTAGTGCTAAAGG, -1.09. The same measure for GGCGGCTAGTGTACAGGTGACCTTTGGAAT: 9.41. The same measure for CTATAGAGGCAGTGAGCCTTGCCGTGCTGC: -1.22; for TACATAACAATGCAAGATAAAAGTGAGCAA: -1.26; for TGACTGAGCTCGCGCCGGGCACTGATAACG: -1.23.

Regarding TGGCTTGGAACTGACATGCTGTCACTTCTG, the binding signal (log2 normalized intensity) was -1.26. With TCTTGTGGCCATTTGGGAAACCGCGATTAA the figure was -1.26; with CCCTGGGGGTGGGGGTGTGGGTAGCAGCTG, -1.24; with CTCCCACATCTTTAATTATCATCTCTGTGT, 2.16. For the sequence CTGTGAAAGAAAAGTACTTTAGTGTATTGT, the binding signal (log2 normalized intensity) was 1.44. The same measure for GGATAGCGTCATCAGTCCAGGAGGGTCACA: 2.05; for TGTCATACTGGTTGAATGGACGGACAGGTA: 1.77; for CTCTCTTAACAGTCTGTTATCCCTAGGAAG: 1.34.

For CCTCGCCTATGGTATGTATGGAATGTCACT, the binding signal (log2 normalized intensity) was found to be 1.77.

On to TAATTTTGCACAGCCAGCCTGAGGCAGTTG, for which the binding signal (log2 normalized intensity) was -1.29. With AGGAATGTGAAATGAATTTACAAACAAATG the figure was -1.3; with ATACAACTAGGCTACATGATACAGCCTTTT, -1.24. With TGGGAAGCTGGCACAGCAGATGCTGGGCAA the figure was -1.32; with AAGAACATTCCAGCTTTGAAGTGCTTCCTG, -1.32; with GAGGAGCGCATCGGGCGCCAGCGCCCCCGT, 0.802. With TCTGGGTGGGGGTGGAGGCAGCAGCTCCAA the figure was -1.33; with TTTGGCCTGCTGAGCCCAATCTAGCAAAAA, -1.33; with GTGGCTCACAAATGGAGTTTGGTTTAAAGT, 1.68. Consider GGGATAGGCAGGAGTTAACTAACAAAAGCA, for which the binding signal (log2 normalized intensity) was -1.21. With TGACCTTTGCATTCTTACCCAAGCCCCAAA the figure was 4.12. On to CCCCTTGATGCATCAGACCCCTGAGTTTCG, for which the binding signal (log2 normalized intensity) was found to be 3.21. With TGACAGTCCAAGGACTCAATGATACCATCA the figure was -1.31; with GACTTTGAACTTCATGTGTGGTGCAGATTC, 2.1.

ACAAATGAGGGGACAAAGTTCGTGGAAAGT: the binding signal (log2 normalized intensity) stood at 3.45. With TCATTCATCCAAGGACTTTGTAATCATATT the figure was 2.92; with AAGGCCGGAGGGCGGGGCGGGGCAGCAGGG, -1.28; with GTTCACCTTTCCCTTCTTCTCCTCCCAACA, 2.62.

CTTATTATCTTCAATGATAAGGAATGAGGA: the binding signal (log2 normalized intensity) turned out to be 0.71. The same measure for ACCTCTGCTCCCAAAGCAAACCTCCCCAGC: 3.78. The same measure for CACAGAAATCCAAAGGTCAACAGCCAGCCT: 4.24.

For ACAGGTTTCTGTCCTGGTCACAGTAACAGG, the binding signal (log2 normalized intensity) is 0.552. The same measure for ATAGATAAGAAAGGCTACAAAGGTGACTTG: 0.716. The same measure for CCGGCAAGTCTGAAATCTACAGGACAGCCA: -1.26; for AGGTGGTTCTTTCTGAGTTGCATGAATTTA: 1.04. With TGTTCTCTTGGCCAACAACTAGGGCAAAGG the figure was 3.55; with AACTGTGGACTCGCTGCCTTTTATCCCTTT, 1.61; with TATACAAGAAAGAAAGAATGTTTGCTTCTG, -1.28. As to CAGCTGTTATCTCTTTTGTGATAGAATGAA, the binding signal (log2 normalized intensity) is 1.89.

Regarding TGCAGTTTCCCTATTCTCAGTGATATAAAA, the binding signal (log2 normalized intensity) came out at 0.942. The same measure for AAGAGGCTCTAGATCTCAAAGTCCAAATAG: 5.17. The same measure for CATATCACAGGAGAAAACAGCACAAGCAAT: -1.25; for GACTCTTGGGCAGTCTAAAGTCTGATCCCA: 2.65; for GGATGGGGACAAAGGTCAAGAAAGCTTTTG: 6.2. With TTAAAGAATTTTTCCCCTAGTTACAACTGT the figure was 1.49; with TCTAGGAACCTTTCTCCATACCTCTTGCGT, -0.849; with ATCAGCAAACACAGATAGCATAATCAAAGA, -1.33. For GGATGAAGGCTGCTGCCTGAAAGGCCAAGC, the binding signal (log2 normalized intensity) is -1.25. With GAATATTTATCAGATACAGGAGATCAGATG the figure was -0.118. With CGCCTTCATTCCTAGCCCCACCAAACTGAC the figure was 3.88; with ACCTTTGGTCTTTGGTGAAACTCCACTACA, 0.804. As to AGGTAGAGTCTAAGGCTAAAACATCCTGGG, the binding signal (log2 normalized intensity) was -1.24.

With ATTGATGGTTTTATCAGCTGAGGCCATTGC, the binding signal (log2 normalized intensity) was 0.889.

AAAACTTGGACTCTATAGCCTATGCTTTGT: the binding signal (log2 normalized intensity) was found to be 1.96. In the case of GCAGTGAGGGTGGGTTCAAAGGTCAGAAAA, the binding signal (log2 normalized intensity) came to 8.97.
